Measured values from PubChem BioAssay AID2546 (National Center for Advancing Translational Sciences (NCATS), 2010).
Hit rate of the full screen: of about 310,000 compounds, about 11,000 (3.5%) were called active. The shares of active, inactive and inconclusive entries below differ from those in the screen. Calls follow the shape of the dose curve; as a rule, active = well fitted inhibition curve with a large enough effect; inconclusive = small, poorly fitted or top-dose-only effect, or effect the other way; inactive = flat fitted curve, though single readings scatter. Potencies of inconclusive entries are left out as doubtful fits.

test: VP16 counterscreen qHTS for inhibitors of ROR gamma transcriptional activity; conditions: Drosophila S2 Gal4-VP16 UAS-luciferase, luminescence, 20 h; activity, negative = inhibition: at 53.6 µM (top of the series);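 also: Gal4-VP16 expression switched on by copper sulfate through the metallothionein promoter; nearly all actives have a fitted effect of over 50% in size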
% is scaled to controls: 0 for no effect and ±100 for the full control effect; potency is read from the fitted curve at half-maximal effect; tags tell the direction and shape of the fitted curve.

Compound | Potency | activity, negative = inhibition
CCOc1cc(/C=N/NC(=S)Nc2ccccc2C(F)(F)F)ccc1OCC(=O)N1CCOCC1 | active: 1.41 µM | –
Cc1cccn2c(=O)c3cc(C(=O)N4CCCC(C)C4)sc3nc12 (stereo not drawn) | inconclusive [activator, single point] | –
C=CCNC(=S)N1CCC(Cc2ccccc2)CC1 | inconclusive [inhibitor, single point] | –
O=C(CN1C(=O)c2cccc3cccc1c23)N1CCN(Cc2ccc3c(c2)OCO3)CC1 | inconclusive [inhibitor, single point] | –
CC(=O)OCC1OC(Sc2cccc3cccnc23)C(OC(C)=O)C(OC(C)=O)C1OC(C)=O (stereo not drawn) | – | inactive: -0.377%
CCn1c(=S)[nH]c2cc(S(=O)(=O)N3CCCCC3)ccc21 | inconclusive [inhibitor, single point] | –
O=C1NC2(CCCCCC2)C(=O)N1Cc1ccccc1Br | – | inactive: -15.7%
Cc1nn2c(-c3ccccc3)ccnc2c1Br | – | inactive: 2.4%
CCn1c(-c2cc(-c3ccc(OC(C)C)cc3)nc3ccccc23)n[nH]c1=S | inconclusive [inhibitor, single point] | –
Fc1ccc(NC(=S)NCc2cccs2)cc1 | active: 28.2 µM | –
COCCN(CCOC)S(=O)(=O)c1ccc(C(=O)Nc2nnc(C)o2)cc1 | inconclusive [inhibitor, single point] | –
CS(=O)(=O)c1ccc(Cn2c3c(c4cc(F)cc(F)c42)CCC[C@H]3CC(=O)O)cc1 | inconclusive [inhibitor, single point] | –
O=C(Nc1ccc2ccccc2c1)Nc1ccc2snnc2c1 | inconclusive [inhibitor, single point] | –
Cc1cc(OCC(=O)Nc2ccc(N3CCCC3)cc2)cc(C)c1Cl | – | inactive: 12.3%
O=C(Nc1ncc(Cc2cccc([N+](=O)[O-])c2)s1)c1ccco1 | inconclusive [inhibitor, single point] | –
COC(=O)CCCCCN1C(=O)/C(=C\c2ccncc2)SC1=S | inconclusive [inhibitor, single point] | –
CN(C)CCO[C@](C)(c1ccccc1)c1ccccn1 | – | inactive: -6.15% [at 17 µM]
Oc1ccc(Cl)cc1-c1cc(-c2ccccc2)n[nH]1 | active: 4.47 µM | –
Fc1ccc(NCc2cn3ccccc3n2)cc1 | inconclusive [inhibitor, single point] | –
C=C(Br)Cn1c(CCCC)nc2ccccc21 | inconclusive [inhibitor, single point] | –
Nc1cccc(C(=O)OCC(=O)Nc2cccc3c2C(=O)c2ccccc2C3=O)c1 | inconclusive [inhibitor, partial curve] | –
Cc1ccc(NC(=O)c2ccccc2OCC(=O)c2ccc(F)cc2)cc1 | inconclusive [inhibitor, partial curve] | –
C=CCN1CCN(C(=O)CSc2ccccc2)CC1 | – | inactive: 0.123%
CCOC(=O)c1cc(-c2ccc(F)cc2)n(CCC(=O)NC2CCN(Cc3ccccc3)CC2)c1C | – | inactive: 0.788%

Compound | Potency | activity, negative = inhibition
O=c1[nH]c(NNC(=S)NCc2ccccc2)nc2c1C1(CCCCC1)Cc1ccccc1-2 | active: 2.82 µM | –
CC1(O)CC2C(CC1O)C2(C)C (stereo not drawn) | – | inactive: 4.38%
COC(=O)c1sc(-c2ccc(Cl)cc2)cc1NC(=O)/C=C/C(=O)O | inconclusive [inhibitor, single point] | –
CCCS(=O)(=O)c1nc(S(=O)(=O)c2ccc(C)cc2)c(N2CCc3ccccc3C2)s1 | inconclusive [inhibitor, single point] | –
O=C1/C(=C\c2cc([N+](=O)[O-])ccc2O)SC(=S)N1Cc1ccc(Cl)cc1 | inconclusive [inhibitor, single point] | –
CCCn1c(N)c(C(=O)NS(=O)(=O)c2ccc(C)cc2)c(=O)n(C)c1=O | inconclusive [inhibitor, single point] | –
S=c1[nH]nc(-c2ccc3ccccc3n2)n1-c1ccccc1 | active: 2 µM | –
O=C(CSc1nc(-c2ccccc2)c(-c2ccccc2)[nH]1)NCc1ccco1 | inconclusive [inhibitor, single point] | –
O=C(Nc1cc(=O)[nH]c2nc(-c3ccccc3)nn12)c1ccccc1Cl | – | inactive: -17.6%
CCOC(=O)c1cnn(-c2ccccc2)c1-n1cccc1 | – | inactive: 10.7%
Cc1cccc(NC(=S)NCCN(C2CCCCC2)C2CCCC2)c1 | – | inactive: -73%
CC1=C(C(=O)Nc2cc(C(=O)N3CCN(c4cccc(C)c4C)CC3)ccc2C)SCCO1 | – | inactive: 0.496%
Cn1c(N)c(C(=O)COC(=O)CNS(=O)(=O)c2cccc(Cl)c2)c(=O)n(C)c1=O | – | inactive: -0.207%
Cc1c(Cl)cccc1NC(=O)Nc1cc(C(C)(C)C)on1 | inconclusive [inhibitor, partial curve] | –
O=C1C2C3CCCC3=C3CCCC3C2C(=O)N1c1ccccc1 (stereo not drawn) | inconclusive [inhibitor, single point] | –
O=C1c2ccccc2CCC12N=NCC2c1ccc(Br)cc1 (stereo not drawn) | – | inactive: 0.0355%
CCOC(=O)c1cc(S(=O)(=O)Nc2cccc(OC)c2)cn1C | inconclusive [inhibitor, single point] | –
Cc1ccc(NC(=O)CC2C(=O)N(Cc3ccccc3)C(=S)N2NC(=O)c2cccc(F)c2)c(C)c1 (stereo not drawn) | inconclusive [inhibitor, single point] | –
CN(C(=O)CCN1C(=O)/C(=C/c2ccccc2F)SC1=S)C1CCS(=O)(=O)C1 (stereo not drawn) | inconclusive [inhibitor, single point] | –
O=C(CCC1CCCN(C(=O)c2ccc3c(c2)OCCO3)C1)NCc1ccccc1F (stereo not drawn) | inconclusive [activator, single point] | –
CCOCCCN1CN(Cc2ccccc2)CNC1=S | active: 3.55 µM | –
Cc1ccn(CCC(=O)N2c3ccccc3CC2C)n1 (stereo not drawn) | – | inactive: 1.99%
CCc1ccc(CN(C)C(=O)c2cc(COc3ccc(OC)cc3Cl)on2)nc1 | – | inactive: -9.1%
CC(Oc1ccc(Cl)cc1)C(=O)NCCN1C(=O)S/C(=C\c2cccnc2)C1=O (stereo not drawn) | inconclusive [inhibitor, single point] | –
